{"source": "PubChem BioAssay AID624202", "about": "(National Center for Advancing Translational Sciences (NCATS), 2012)", "note": "About 4,000 (1.1%) of roughly 380,000 compounds were called active. The shares of active, inactive and inconclusive entries below differ from those in the screen. Calls follow the shape of the dose curve; as a rule, active = well fitted activation curve with a large enough effect; inconclusive = small, poorly fitted or top-dose-only effect; inactive = no such curve, though single readings can be large or run the other way. Where the call is inconclusive, the potency comes from a doubtful curve fit. Potency is read from the fitted curve at half-maximal effect; tags tell the direction and shape of the fitted curve."}
{"assay": "qHTS Assay to Identify Small Molecule Activators of BRCA1 Expression; also: nearly all actives have a fitted effect of over 80% in size", "settings": "MCF7-BRCA1-FFLuc reporter, luminescence, 48 h; activation: at 46.1 µM (top of the series), scaled: vehicle 0%, 10 µM genistein 100% unless noted", "in_short": "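Quantitative HTS in MCF7 cells stably reporting BRCA1 expression via firefly luciferase. Compound treatment lasts 48 h at 37 °C in phenol-red free MEM. Activation is expressed relative to genistein at 10 microM and DMSO.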"}
{"compound": "CCOc1ccc(NC(=O)c2ccccc2O)cc1", "Potency": "inconclusive: 0.794 µM [activator, full curve, poor fit]"}
{"compound": "O=C(Nc1ccc(Cl)cn1)c1cnn2cccnc12", "Potency": "active: 6.31 µM"}
{"compound": "COc1ccc(CCN2C(=O)CS/C2=N/NC(=O)c2ccccc2F)cc1OC", "activation": "inactive: 1.37%"}
{"compound": "OCCc1ccc(-c2ccc(Cl)cc2)o1", "Potency": "inconclusive: 11.2 µM [activator, partial curve, poor fit]"}
{"compound": "COC(=O)/C(=C/c1cccnc1)NC(=O)c1ccccc1", "activation": "inactive: -1.88%"}
{"compound": "CCN(CC)C(=O)C1CCN(Cc2ccc(OCc3ccccc3)c(OC)c2)CC1", "activation": "inactive: 12.1%"}
{"compound": "Cc1ccc(CN2C(=O)CSC2c2ccc(F)cc2)cc1", "note": "(configuration not stated)", "activation": "inactive: -33.5%"}
{"compound": "Cc1ccccc1-c1cnc(C(O)c2ccccc2)[nH]1", "note": "(configuration not stated)", "Potency": "active: 4.47 µM"}
{"compound": "Cn1c(N)c(C(=O)COC(=O)C2=NNC(=O)CC2)c(=O)n(C)c1=O", "activation": "inactive: -31.9%"}
{"compound": "Nc1ccccc1C#Cc1ccc([N+](=O)[O-])cc1", "Potency": "inconclusive: 2 µM [activator, full curve, poor fit]"}
{"compound": "COc1ccc2nc(C)cc(N/N=C/c3cccc(OC)c3O)c2c1", "activation": "inactive: -46.6%"}
{"compound": "O=C(NCc1ccccn1)c1cc2ccccc2oc1=O", "Potency": "inconclusive: 17.8 µM [activator, single point]"}
{"compound": "CC[C@@H](C)[C@H](C(CC(=O)N1CCCC1[C@@H](OC)[C@H](C)C(=O)N[C@H](Cc1ccccc1)c1nccs1)OC)N(C)C(=O)[C@H](NC(=O)[C@@H](C(C)C)N(C)C)C(C)C", "note": "(some centres not stated)", "activation": "inconclusive: -83.9% [activator]"}
{"compound": "NC(=O)c1ccc(NC(=O)COC(=O)CCC(=O)c2ccc(Cl)cc2)cc1", "activation": "inactive: -2.02%"}
{"compound": "O=C(COc1ccc(Br)cc1Cl)NC(=S)Nc1ccccn1", "Potency": "inconclusive: 25.1 µM [activator, single point]"}
{"compound": "Cc1cc(-c2ccccc2)nc(SCc2ccc(C(=O)O)cc2)n1", "activation": "inactive: 1.08%"}
{"compound": "COCCn1c(SCC(=O)Nc2ccc3c(c2)OCCO3)nc2c(c1=O)SC(C)C2", "note": "(configuration not stated)", "Potency": "active: 8.91 µM"}
{"compound": "O=S1(=O)CCN2C(=N1)Sc1c2ccc2c1CCCC2", "Potency": "inconclusive: 15.8 µM [activator, partial curve, poor fit]"}
{"compound": "CCCc1cc(C(=O)Nc2ccc(C)cc2)no1", "Potency": "inconclusive: 14.1 µM [activator, partial curve, poor fit]"}
{"compound": "COc1ccc(C2Nc3ccccc3C(=O)N2c2ccc(C)cc2)cc1Cn1cc([N+](=O)[O-])cn1", "note": "(configuration not stated)", "Potency": "inconclusive: 2.24 µM [activator, full curve, poor fit]"}
{"compound": "CCCN1CNc2c(c(=O)[nH]c(=S)n2CCc2ccc(C)c(C)c2)C1", "activation": "inactive: -32.1%"}
{"compound": "Cc1ccc(OCC(=O)Nc2cc(C)on2)c([N+](=O)[O-])n1", "activation": "inactive: 76.3%"}
{"compound": "Cc1ccc2nc(-c3cccc(Br)c3)cc(C(=O)Nn3cnnc3)c2c1", "Potency": "active: 10 µM"}
{"compound": "O=C1c2ccccc2NC(c2ccc(-c3cccs3)o2)N1O", "note": "(configuration not stated)", "Potency": "inconclusive: 31.6 µM [activator, single point]"}
{"compound": "CC(=O)N(c1ccccc1)c1nc2ccccc2s1", "Potency": "inconclusive: 15.8 µM [activator, single point]"}
{"compound": "COc1ccc(C(=O)NCCn2cc(SCC(=O)Nc3nnc(C)s3)c3ccccc32)cc1", "Potency": "active: 12.6 µM"}
{"compound": "Cc1nnc(SCc2ccc(F)cc2)s1", "Potency": "inconclusive: 14.1 µM [activator, partial curve, poor fit]"}
{"compound": "COc1cccc(CN2CCC(Oc3ccc(C(=O)NCc4ccccn4)cc3)CC2)c1O", "activation": "inactive: -7.07%"}
{"compound": "O=C(Nc1ccccc1Cl)c1ccc2nccnc2c1", "Potency": "active: 5.01 µM"}
{"compound": "O=c1[nH]cnc2scc(-c3ccc(-c4ccccc4)cc3)c12", "Potency": "inconclusive: 1.12 µM [activator, full curve, poor fit]"}
{"compound": "c1ccc(SCc2nc3ccccc3s2)nc1", "Potency": "active: 3.16 µM"}
{"compound": "O=C(Cn1nnc2ccccc21)NCc1ccccc1", "Potency": "inconclusive: 1.41 µM [activator, partial curve, poor fit]"}
{"compound": "CC(=O)Cc1nsc(NC(=O)c2cccc(F)c2)n1", "Potency": "inconclusive: 14.1 µM [activator, single point]"}
{"compound": "O=C(CCN1C(=O)/C(=C/c2cccs2)SC1=S)Nc1ccc(C(=O)O)cc1", "activation": "inactive: -2.25%"}
{"compound": "COc1cc(SC)ccc1C(=O)NCC1CCCCC1", "Potency": "inconclusive: 11.2 µM [activator, partial curve, poor fit]"}
{"compound": "C=CCNc1nc(-c2ccccc2)c(C(=O)OCC)cc1C#N", "activation": "inactive: -67%"}
{"compound": "Cc1cc(C(=O)COc2ccccc2C(N)=O)c(C)n1C1CC1", "Potency": "inconclusive: 11.2 µM [activator, partial curve, poor fit]"}
{"compound": "Cn1cccc1/C=N/NC(=O)c1cccs1", "Potency": "inconclusive: 15.8 µM [activator, single point]"}
{"compound": "COc1ccc(-n2ncc3c(Nc4cccc(C)c4)ncnc32)cc1", "Potency": "inconclusive: 1.26 µM [activator, full curve, poor fit]"}
{"compound": "COc1cccc(C(=O)Nc2ccc(NC(=O)C(C)(C)C)cn2)c1", "activation": "inactive: 1.23%"}
{"compound": "COc1cc(/C=C/C(=O)OCC(=O)Nc2ccc3[nH]c(=O)[nH]c3c2)ccc1OC(F)F", "activation": "inactive: -4.11%"}
{"compound": "CC(C)Oc1cccc(-c2cc(C(=O)N3CCN(S(C)(=O)=O)CC3)c3ccccc3n2)c1", "Potency": "inconclusive: 35.5 µM [activator, single point]"}
{"compound": "C/C(=N\\NC(=O)c1c(Cl)cnn1C)c1cccc(NC(=O)C(C)C)c1", "activation": "inactive: 17.5%"}
{"compound": "Cn1ccsc1=NC(=O)c1cccc(C#N)c1", "Potency": "inconclusive: 35.5 µM [activator, single point]"}
{"compound": "Brc1ccccc1OCCCOc1cccc2cccnc12", "Potency": "active: 8.91 µM"}
{"compound": "Clc1cccc(CSc2ncn(-c3ccccc3)n2)c1", "Potency": "inconclusive: 15.8 µM [activator, single point]"}
{"compound": "O=C(NC1CC1)c1ccc2c(Cl)c3c(nc2c1)CCCC3", "Potency": "inconclusive: 11.2 µM [activator, partial curve, poor fit]"}
{"compound": "O=C(Cc1ccccc1)Nc1ccc(NC(=O)c2ccccc2)nc1", "Potency": "active: 12.6 µM"}
{"compound": "Cc1ccc(C(=O)Oc2oc(-c3ccco3)nc2C=Nc2ccc(Cl)cc2)cc1", "Potency": "active: 2 µM"}
{"compound": "COCCNC(=O)c1cc2cc3ccc(OC)cc3nc2o1", "Potency": "inconclusive: 17.8 µM [activator, single point]"}
{"compound": "CC(=O)Nc1cccc(C(=O)OCC(=O)c2ccccc2Cl)c1", "Potency": "inconclusive: 10 µM [activator, partial curve, poor fit]"}
{"compound": "CCOC(=O)/C(C#N)=C/Nc1ccccc1OC", "Potency": "active: 2.24 µM"}
{"compound": "Fc1cccc(/C=N/Nc2ccccn2)c1", "Potency": "active: 7.94 µM"}
{"compound": "O=C(Nc1ccc2c(c1)Cc1ccccc1-2)c1ccccc1F", "Potency": "inconclusive: 1.26 µM [activator, full curve, poor fit]"}
{"compound": "Nc1ccc2c(c1)nnn2-c1ccccc1", "Potency": "inconclusive: 11.2 µM [activator, partial curve, poor fit]"}
{"compound": "O=C(c1cc(COc2c(F)cccc2F)on1)N1C[C@H]2CC[C@H]1C2", "Potency": "inconclusive: 1 µM [activator, full curve, poor fit]"}
{"compound": "Clc1ccccc1CN1CCN(/N=C/C=C/c2ccco2)CC1", "Potency": "inconclusive: 12.6 µM [activator, partial curve, poor fit]"}
{"compound": "COc1ccc(-c2csc(N3CCOCC3)n2)cc1OC", "Potency": "active: 14.1 µM"}
{"compound": "CN(C)/C=C/C(=O)c1ccc(-n2cccc2)cc1", "Potency": "active: 7.94 µM"}
{"compound": "Cc1ccsc1C(=O)NCCc1nnc2ccccn12", "Potency": "inconclusive: 11.2 µM [activator, partial curve, poor fit]"}
{"compound": "Cc1cc(NC(=O)c2cc(C(C)C)on2)no1", "Potency": "active: 11.2 µM"}
{"compound": "O=C(Nc1ccc(F)cc1)N1CCc2ccccc2C1", "Potency": "inconclusive: 14.1 µM [activator, single point]"}
{"compound": "COc1ccc(Cc2nc3ccc(C(=O)NCC(C)(C)OC)cc3o2)cc1", "Potency": "active: 10 µM"}
{"compound": "c1cncc(-c2cnc3ccccc3c2)c1", "Potency": "inconclusive: 12.6 µM [activator, partial curve, poor fit]"}
{"compound": "Cc1c(C(=O)Nc2ccccc2F)cnn1-c1ccccc1", "Potency": "inconclusive: 0.501 µM [activator, full curve, poor fit]"}
{"compound": "COc1ccc2c(c1)S/C(=C\\C(=O)c1ccncc1)N2C", "Potency": "active: 4.47 µM"}
{"compound": "c1ccc2[nH]c(-c3ccc4c(c3)OCO4)nc2c1", "Potency": "inconclusive: 0.631 µM [activator, full curve, poor fit]"}
{"compound": "O=C(CSc1nnc(-c2ccccc2)o1)N1CCCCC1", "Potency": "active: 3.16 µM"}
{"compound": "COc1ccc(C(=O)Nc2nc3cc4c(cc3s2)OCO4)c(OC)c1", "activation": "inconclusive: 157% [activator]"}
{"compound": "COc1ccccc1OCc1cc(C(=O)N(C)CCC2CCOCC2)no1", "Potency": "inconclusive: 11.2 µM [activator, partial curve, poor fit]"}
{"compound": "O=[N+]([O-])c1ccccc1/C=N/NC1=NCCN1", "activation": "inactive: 15.1%"}
{"compound": "Cc1cc2oc3ccc(NCCCn4ccnc4)cc3c(=O)c2cc1C", "Potency": "inconclusive: 2.24 µM [activator, partial curve, poor fit]"}
{"compound": "Cc1cc(NC(=O)CC2CCCC2)ccc1Br", "Potency": "active: 8.91 µM"}
{"compound": "CCOc1ccc(-c2nnc(NC3=NCCCCC3)o2)cc1", "Potency": "inconclusive: 1.12 µM [activator, full curve, poor fit]"}
{"compound": "S=C(Nc1ccccc1)c1ccccn1", "Potency": "active: 10 µM"}
{"compound": "Cc1ccc(NC(=S)NC(=O)C2CCCC2)c(Br)c1", "Potency": "inconclusive: 2.24 µM [activator, full curve, poor fit]"}
{"compound": "Cc1noc(C)c1COc1ccc(C(=O)NCCOc2ccccc2)cc1", "Potency": "inconclusive: 20 µM [activator, partial curve, poor fit]"}
